Our source for the self-cleavage values is the RNAGym collection of RNA variant scans (doi:10.1093/nar/gkz1192).

Read counts are not given, so values of variants with three or more changes are uncertain.

To fix the notation:
B1: CPEB3 Ribozyme (parent)
chain: UAACAGGGGGCCACAGCAGAAGCGUUCACGUCGCAGCCCCUGUCAGAUUCUGGUGAAUCUGCGAAUUCUGCUGUAUAUCUC

The data set covers variants of B1. As to the kind of experiment: self-cleavage, relative activity (ratio to wild type); higher = more cleavage; in vitro, sequencing. In a few lines:
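Relative activity compares each variant's cleaved/total read fraction with that of the unmutated ribozyme. To get these fractions, barcoded CPEB3 ribozyme libraries from rounds of error-prone PCR were transcribed with T7 RNA polymerase for 5 hours at 37°C and then given 15 min of DNase I treatment before EDTA was added. The RNAs were reverse transcribed with template switching and sequenced on Illumina, and DNA sequencing linked barcodes to variants. A minimum of 5 reads applied, and three batches were averaged.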
Turning to G36A U49C U51C A56G A75G A77G, the self-cleavage amounted to 0.27.
Regarding A35U U41C U54C U67C U80C, the self-cleavage was 0.17.
The value for A35U U43A U60C was 0.23.
Under C37G C40A G42U stands 0.07; under C37G U49C U80C, 0.3.
The value for G36A U43C A57G U66C was 0.14.
With C37U U41A A57U, the self-cleavage was 0.33.
The value for A35U U54C U69C was 0.13; that for A35U U41A A77U was 0.35.
Consider C37A U51C U58A, for which the self-cleavage came out at 0.11.
The value for C37U A64G U66C was 0.11.
Under A35U U49C A64U stands 0.15; under A35U U43A A45U U78G, 0.37; under C37A A56G U66G, 0.1.
The value for C37A U48C U54C U72C was 0.1.
Consider C37A U41A U43C A56G, for which the self-cleavage was determined as 0.16.
Under A35U U43C U69A G70U U76C stands 0.29.
The value for A35U U49C C59A was 0.09; that for C37U U43C U72A U78A was 0.1.
As to C37U U43C U72A, the self-cleavage stood at 0.39.
As to A35U U41C U49G A64G, the self-cleavage came out at 0.22.
The value for G36U C38G U41G was 0.24; that for C37A A47U U54G was 0.15; that for A35U U51G A65G A77G U78C was 0.11.
Under A35U U43C A56G A65G C71G U78C C81U stands 0.11.
On to C37U C38G A64G, for which the self-cleavage was 0.11.
With C37U U43C U60A U69C U72A, the self-cleavage was found to be 0.06.
Under C37A U74A U78C stands 0.12.
Under A35U U43C A56G U60A A75G A77U stands 0.07.
A35U U43C A57G C71G: the self-cleavage was determined as 0.1.
Take A35U U43C A56G C71G U78C C81U: the self-cleavage turned out to be 0.04.
Under A35U U41C A56U A77U U78C stands 0.34.
The value for C37A U51C A57G A64G U74A U80C was 0.05; that for A35U U41C U43A U60C G70U was 0.17.
Under A35U U43C U48C A57G U74C stands 0.61; under A35U U60C A65G, 0.41.
In the case of A35U U41C G42U G46U U48C, the self-cleavage came out at 0.16.
Under A35U U41C G55C A65G stands 0.1; under A35U U54C A65U, 0.12; under A35U U51A U54C, 0.4.
With C37U G63U U80C, the self-cleavage turned out to be 0.99.
Turning to G36A U41A U51C U74C, the self-cleavage is 0.17.
The value for G36A A65G U80A was 0.14; that for A35U U41A U58C U69A U72C was 0.06; that for A35U U41C C59U A77G was 0.24.
Under A35U U51A U60C stands 0.43; under A35U U49A U60C, 0.19.
C37A A45G U48C U60A A65U: the self-cleavage was found to be 0.09.
Under G36A G46U U58A stands 0.08; under G36A U41C U43C U51A U54A, 0.2; under G36A U51C G61A U69A, 0.
The value for A35U U51C U72C was 0.54; that for C37U A45G U74A was 0.81; that for C37U U48A A75G was 0.31.
Under C37U A56G A65G stands 0.18.
Take A35U U66C U72C: the self-cleavage is 0.21.
As to G36A A56G U60C U80C, the self-cleavage came to 0.11.
Consider A35U U51A A57U U58C, for which the self-cleavage was found to be 0.35.
Take A35U U43A U67C U74C U80A: the self-cleavage is 0.04.
Consider A35U U43C C62U A65C U72A, for which the self-cleavage was 0.09.
The value for G36A U60A U78C was 0.12.
In the case of A35U U67C U72A, the self-cleavage came to 0.1.
In the case of C37A U60C A65G, the self-cleavage was 0.14.
Under A35U U43C A77U stands 0.15; under C37U C38G U43A, 0.34; under A35U U41A A45G U51C U58C U60C, 0.07.
On to C37G U69C U72A, for which the self-cleavage is 0.25.
The value for A35U U58A C59U was 0.13.
The value for C37A A57U U74C was 0.11; that for G36A C40U U60A was 0.1.
Take A35U U49A U60C A65U: the self-cleavage is 0.11.
The value for C37U A57G U67C was 0.14; that for A35U U43C A64G was 0.33.
Under C37U A56U U60C U80A stands 0.12; under G36A A56G U60C U66C, 0.13.
Turning to A35U U41C U80C, the self-cleavage was determined as 0.54.
With C37A U43C U54C, the self-cleavage was 0.16.
Under A35U U66C C71A U72A A77G stands 0.07.
Under A35U U49C U69C stands 0.11.
Under G36A U41A A77G stands 0.11; under A35U U51A U76A, 0.63.
Turning to A35U U60A A65U U66C A75G, the self-cleavage amounted to 0.11.
The value for G36C U54C A57G U58A was 0.1.
The value for C37G U41A C44A U80C was 0.09; that for A35U U41C U43C U60A was 0.08.
The value for A35U U58C A64G U76C U80A was 0.05.
In the case of G36A A45U U66C, the self-cleavage was 0.04.
On to C37U A47G A57G, for which the self-cleavage was determined as 0.47.
In the case of A35U U58C A65G A77G, the self-cleavage worked out at 0.1.
The value for A35U U48C U54A A56U U67A U69A was 0.1; that for G36A U43C U66C was 0.08; that for C37G U60C G61U A77G was 0.13.
Under A35U U58A U80C stands 0.18.
The value for A35U U58C U60A U76C was 0.08; that for C37U U43C U51C A64G U74C was 0.2; that for A35U U54C A64U was 0.12.
For the variant A35U U41C A47G U76A, the self-cleavage was 0.53.
Take A35U U41C G46U A64U: the self-cleavage was determined as 0.11.
On to A35U U49A U66C U80G, for which the self-cleavage stood at 0.06.
As for A35U U41C U58C A64U U74A A75G, the self-cleavage is 0.12.
Turning to A35U U41C U58C A64G A75G, the self-cleavage was determined as 0.07.
Under C37U U48A U60C stands 0.14.
As to A35U U41C U43C U76C, the self-cleavage was found to be 0.19.
Take A35U U48A U69C C81U: the self-cleavage turned out to be 0.1.
Consider G36A C39A U41C, for which the self-cleavage was 0.16.
The value for A35U U43C U66A was 0.17; that for C37G U51C U69C was 0.21; that for A35U U49C A64G U69C was 0.09.
Under G36U U43C A77G U78A stands 0.12; under C37G U49C U54C, 0; under G36U U60C A64C U80A, 0.06.
The value for G36A C39A C40U A56U U74C A77U was 0.07; that for G36C A45G U72C U78C was 0.13; that for C37G A47U A57G was 0.05.
For the variant G36A U58C U69A, the self-cleavage came out at 0.08.
Under A35U U41A A57C stands 0.11; under C37A C44U A45G U60A, 0.14.
Regarding G36A U41C U66C, the self-cleavage came to 0.37.
Regarding A35U U48C U69C, the self-cleavage worked out at 0.41.
Under C37A G70C U72C stands 0.12.
In the case of A35U U48C A57G, the self-cleavage worked out at 0.64.
Under G36C U43A U58A stands 0.08.
Under C37G U49C U51C stands 0.34; under G36A A64G U69C U80C, 0.15; under C37A A56G U72C, 0.11.
A35U U43C U54A A56G: the self-cleavage stood at 0.38.
The value for G36C U49C U69C was 0.08.
The value for G36C U49C U69G was 0.12.
The value for A35U U60C A64G U74A was 0.09; that for C37A C39A U60A U69A U72C was 0.17.
A35U U41C A45C A75G A77G: the self-cleavage turned out to be 0.07.
The value for C37G U48A A65G was 0.47; that for A35U U43C U48C G70A U78C was 0.24; that for A35U U41C U43A G46U was 0.17.
The value for C37U A47G U60C was 0.16; that for A35U U43C U60G A64G was 0.16; that for A35U U54C U58A A64U was 0.11.
C37U U43C U48A A65U: the self-cleavage is 0.07.
Under G36U A47U U60A U72A U80C stands 0.13.
Under A35U U41C U49G stands 0.33.
Under A35U U41C U67C stands 0.11; under G36A U60C U72C, 0.1.
As for A35U U41A A65C U67G, the self-cleavage was determined as 0.1.
The value for G36C U43C A47G A56G was 0.18.
As for C37U U43C U54G, the self-cleavage is 0.25.
With A35U U49A A57G, the self-cleavage amounted to 0.46.
With C37U C38U U48C, the self-cleavage worked out at 0.18.
Under G36C A47U U54C U78C stands 0.05; under A35U U66C U67A U74C U80C, 0.18; under A35U U43C U49C U69C, 0.21.
Consider G36U A57G U76C, for which the self-cleavage is 0.14.
Under A35U U49C U60C U67C stands 0.09.
Under A35U U43C G52A stands 0.36.
Consider A35U U54C U66C U69C, for which the self-cleavage worked out at 0.33.
On to A35U U43A U67A U69C, for which the self-cleavage was found to be 0.25.
Take G36A A47U U67C: the self-cleavage was found to be 0.1.
On to C37U U41A U43A U58C, for which the self-cleavage was 0.09.
G36A A47G A64U: the self-cleavage worked out at 0.21.
The value for A35U U49C U69C A77G was 0.08.
The value for A35U U41A U54C was 0.52; that for A35U U49A G53A was 0.2.
The value for G36A G42U A45G was 0.32; that for A35U U43C A45G U51A A65U was 0.25; that for A35U U41A U66C was 0.35.
For the variant A35U U54C A77U, the self-cleavage amounted to 0.41.
On to G36A U49A U72A U76A, for which the self-cleavage came out at 0.11.
Take A35U U43A U51C A77G: the self-cleavage came to 0.39.
